Results on one molecule are retold here after article PMC11335204.

The chains behind the UniProt entries cited, without tags or fusion partners. Where a name states a change or a piece, a line headed by the entry shows the natural chain unless it says otherwise. A line that says so, or that is headed by a name, gives the form on record, which may keep a tag or linker. Residues count along the entry.
GST fused to the 2-340 INF2 fragment (Q27J81, residues 2-340): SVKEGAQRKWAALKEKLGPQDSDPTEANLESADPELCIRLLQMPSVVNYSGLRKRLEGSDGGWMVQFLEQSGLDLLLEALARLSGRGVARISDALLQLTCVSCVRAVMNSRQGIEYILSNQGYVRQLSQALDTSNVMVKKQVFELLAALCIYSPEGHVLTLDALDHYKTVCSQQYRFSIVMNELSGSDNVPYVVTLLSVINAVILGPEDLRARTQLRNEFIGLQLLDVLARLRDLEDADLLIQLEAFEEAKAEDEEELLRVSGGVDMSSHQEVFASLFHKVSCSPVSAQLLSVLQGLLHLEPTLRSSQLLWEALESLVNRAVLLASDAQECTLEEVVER
GST fused to the 2-21 INF2 fragment (Q27J81, residues 2-21): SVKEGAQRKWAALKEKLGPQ
GST fused to the 19-340 INF2 fragment (Q27J81, residues 19-340): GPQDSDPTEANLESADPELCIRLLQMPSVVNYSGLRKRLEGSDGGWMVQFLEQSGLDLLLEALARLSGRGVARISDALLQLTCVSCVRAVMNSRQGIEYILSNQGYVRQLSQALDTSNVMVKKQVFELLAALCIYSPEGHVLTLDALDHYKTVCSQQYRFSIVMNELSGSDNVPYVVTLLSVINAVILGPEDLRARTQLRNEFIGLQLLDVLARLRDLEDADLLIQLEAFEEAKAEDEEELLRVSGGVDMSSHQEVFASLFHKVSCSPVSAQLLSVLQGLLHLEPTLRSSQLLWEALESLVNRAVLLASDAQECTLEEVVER
GST fused to the 2-340 INF2 fragment with the triple W11L14L18A mutation (Q27J81, form named): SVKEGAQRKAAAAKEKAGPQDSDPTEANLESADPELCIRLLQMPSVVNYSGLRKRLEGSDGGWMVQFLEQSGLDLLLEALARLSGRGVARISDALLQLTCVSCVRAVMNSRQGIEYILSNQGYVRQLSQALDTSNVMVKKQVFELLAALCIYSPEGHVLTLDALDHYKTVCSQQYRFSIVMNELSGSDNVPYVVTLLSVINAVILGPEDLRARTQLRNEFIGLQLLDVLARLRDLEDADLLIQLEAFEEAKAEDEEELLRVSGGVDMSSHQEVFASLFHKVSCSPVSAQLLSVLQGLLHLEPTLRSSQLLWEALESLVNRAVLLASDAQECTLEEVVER

Holding throughout (assay): pull-down; 30 µg GST-fused INF2 fragments immobilized on glutathione-Sepharose 4B beads, incubated 3 h at 4 °C with lysates of HEK293T cells expressing GFP fusions; 20 mM Tris-HCl pH 7.8, 150 mM NaCl, 1% Nonidet P-40, 1% glycerol, 5 mM CaCl2; immunoblotting; only the target purified
For orientation: In western blotting, separated proteins are transferred to a membrane and probed.

For test [1], the target named is GST fused to the 2-340 INF2 fragment with the triple W11L14L18A mutation (human) (UniProt Q27J81).
For test [2], the target named is GST fused to the 2-21 INF2 fragment (human) (UniProt Q27J81).
The target in test [3] is GST fused to the 19-340 INF2 fragment (human) (UniProt Q27J81).
Test [4] addresses GST fused to the 2-340 INF2 fragment (human) (UniProt Q27J81).

Results are given in words; binding and its absence hold for the method and conditions named. In cells and extracts the contact can be indirect. Some entries that bind do so weakly or less than the wild type. Tags and fused reporters may be left off the sequences shown.

B1: GFP fused to centrin-3 (protein, UniProt O15182 1-167)
chain: MSLALRSELVVDKTKRKKRRELSEEQKQEIKDAFELFDTDKDEAIDYHELKVAMRALGFDVKKADVLKILKDYDREATGKITFEDFNEVVTDWILERDPHEEILKAFKLFDDDDSGKISLRNLRRVARELGENMSDEELRAMIEEFDKDGDGEINQEEFIAIMTGDI
For B1, the binding result is listed as “no binding” in test [1], “binds” in test [2], “no binding” in test [3] and “binds” in test [4].
